ChEMBL document CHEMBL4888484, “Replenishing the malaria drug discovery pipeline: Screening and hit evaluation of the MMV Hit Generation Library 1 (HGL1) against asexual blood stage Plasmodium falciparum ,using a nano luciferase reporter read-out” (2022)
About 540 (0.36%) of roughly 150,000 compounds showed an effect of 50% or more. This is one part of the list.

System: Plasmodium falciparum
Assay: Primary screen in NF54 nanoGlo assay, in single point, at 2uM, 72h; a lower Z score goes with more inhibition
Format: functional, Erythrocyte
Conditions: timepoint 72 hour

| Structure (SMILES) | % Inhibition [%] | Z score |
| --- | --- | --- |
| Cn1nncc1CNCc1ccc(OCCN2CCOCC2)c(Cl)c1 | -6 | 0.68 |
| COCCNC(=O)C(=O)NCC[C@H](O)c1ccccc1 | -5 | 0.77 |
| O=C(Nc1nc(-c2ccccc2)cs1)c1cc(F)c(N2CCCC2)c(F)c1F | 8 | -0.91 |
| O=C(Cc1ccc(O)c(F)c1)NC1Cc2ccccc2C1 | 22 | -2.76 |
| CCc1ccc(NC(=O)[C@H](C)N2CCC(NS(=O)(=O)c3cccs3)CC2)cc1 | 76 | -7.11 |
| CCc1nsc(NCc2cnn3c2CCCC3)n1 | 0 | -0.05 |
| COCc1cccc(C(=O)NC2C3CCCOC3C2(C)C)c1 (stereo not given) | 4 | -0.56 |
| CC(C)c1ccsc1C(=O)NCCc1csc(N2CCCC2)n1 | -8 | 1.12 |
| COc1ccc(OCc2nc(C(=O)N3CC(n4cccn4)C3)co2)cc1 | 16 | -2.16 |
| CC(C)N1CCN(C(=O)CCN2Cc3ncccc3C2=O)CC1 | 2 | -0.28 |
| CCCCNC(=O)N1CCC[C@@]2(CCC(=O)N(Cc3cccnc3)C2)C1 | -12 | 1.59 |
| Cc1cnccc1NCCNCc1cccc(O)c1Cl | 88 | -13.09 |
| COc1ccccc1CCC(=O)N1C[C@@H]2C[C@H](NC(=O)c3ccccc3)[C@H]1C2 | -8 | 1.24 |
| COc1cccc(-c2nc3ccc(C(=O)NC[C@H]4CCCCO4)cc3o2)c1 | -8 | 1.11 |
| CC[C@@H](Cc1ccc(C(F)(F)F)cc1)C(=O)N[C@H]1CC[C@H](O)CC1 | -13 | 1.42 |
| O=C(NCc1nccnc1-c1ccoc1)c1ccccn1 | -17 | 3.32 |
| CCN(CC)CCCn1c(-c2ccc(OC)cc2)cn2c3ccccc3nc12 | 7 | -1.29 |
| c1ccc(-n2ncc(CN3CCOc4ccccc43)n2)cc1 | -12 | 1.69 |
| O=C(COc1ccc(-c2nc3ccccc3s2)cc1)NCc1ccco1 | -4 | 0.64 |
| COc1ccccc1/N=C(/NC(=O)c1cccc(C)c1)N1CCN(c2cc(C)ccc2C)CC1 | 2 | -0.31 |
| COc1cn(-c2cccc(C(F)(F)F)c2)nc1C(=O)N[C@H](c1ccccc1F)c1nccn1C | 1 | -0.23 |
| CN(Cc1cccnc1)c1ccc(S(=O)(=O)C(F)F)cc1 | 40 | -5.18 |

| Structure (SMILES) | % Inhibition [%] | Z score |
| --- | --- | --- |
| COc1ccc(Cn2nnc3c(C)nn4c(-c5ccc(OC)cc5)nnc4c32)cc1 | -10 | 1.84 |
| CC#CCn1cc(CNC(=O)OC(C)(C)C)cn1 | -8 | 0.98 |
| COc1ccc(NC(N)=NC[C@H]2CCCO2)cc1 | -3 | 0.36 |
| Cc1nc(NC(=O)[C@H]2CC(=O)N(c3n[nH]c4cc(Br)ccc34)C2)sc1C | 2 | -0.26 |
| O=C1N[C@H](CO)C(=O)N[C@H]1COCc1ccccc1 | -6 | 1.05 |
| O=C(Nc1nnc(-c2cccc(Br)c2)s1)[C@@H]1CCCN1C(=O)c1ccc2ccccc2c1 | -18 | 1.76 |
| NC(=O)C(Cc1ccccc1)NC(=O)C1CC1c1c(F)cccc1F (stereo not given) | 5 | -0.61 |
| Cc1nn(C(C)C)c2nc(C3CC3)cc(C(=O)N(C)Cc3c(Br)cnn3C)c12 | 5 | -0.8 |
| CC(C)(C)C(=O)N1CCC(CS(=O)(=O)c2ccccc2)CC1 | 0 | -0.05 |
| O=C(C[C@H](c1ccc(O)cc1)C1CC1)Nc1cnoc1 | 2 | -0.21 |
| C[C@H]1CC(=O)N(CCOc2ccccc2Br)C1=O | 0 | 0 |
| COc1ccc(-c2nc(CC(C)C)n[nH]2)c(OC)n1 | 5 | -0.63 |
| CCOc1ccc(N2C[C@@H](C(=O)Nc3ccccc3C(=O)NCc3ccc(OC)cc3)CC2=O)cc1 | -19 | 2.01 |
| CC(C)NC(=O)CNC(=O)c1ccc(Cl)s1 | -11 | 1.36 |
| O=C(CCCc1ccccn1)N1CCN([C@@H](CO)c2cccc(Cl)c2)CC1 | -10 | 1.81 |
| CCCN(C[C@H]1CCOC1)C(=O)Nc1ccc(C)cc1Cl | 2 | -0.22 |
| Cc1ccc2nc(C3CC3)cc(C(=O)N(C)CC3(CO)CC3)c2c1 | -6 | 0.73 |
| CCOC1CC(NC(=O)CCc2c(C)[nH]c(=O)c(C#N)c2C)C1(C)C (stereo not given) | 3 | -0.6 |
| CC1(C)NC(=O)N(CC(=O)Nc2cccc(N3C(=O)CNC3=O)c2)C1=O | 10 | -1.33 |
| CC[C@@]1(CO)N[C@H](c2cccc(Oc3ccccc3)c2)[C@@H]2CN(C)C[C@@H]21 | 3 | -0.38 |
| COc1ccc(OCC(=O)Nc2sc3c(c2C#N)CCCCC3)cc1 | -5 | 0.7 |
| CC(C)[C@@H]1C(=O)Nc2ccc(S(=O)(=O)N3CCCCCC3)cc21 | -18 | 1.76 |

| Structure (SMILES) | % Inhibition [%] | Z score |
| --- | --- | --- |
| Cn1ccnc1CS(=O)(=O)Cc1nc(C(C)(C)C)cs1 | -8 | 1.14 |
| O=C(N[C@H]1CCCCNC1=O)c1sc2ccccc2c1Cl | -17 | 2.58 |
| c1ccc(C2CCN(c3ncnc4[nH]ccc34)CC2)nc1 | -11 | 1.41 |
| COc1ccc(Cc2ncnn2C2CCCCC2)cc1OC | 5 | -0.66 |
| CCn1ccnc1[C@H](C)NC(=O)c1ccn(C(C)C)n1 | 1 | -0.14 |
| COCC1(C(=O)N[C@H]2CN(c3ccc(C#N)cn3)C[C@@H]2C(C)C)CCC1 | 5 | -0.9 |
| CN1CCCCC[C@H]1C(=O)NCc1cccnc1N1CCN(c2ccccn2)CC1 | -6 | 1.1 |
| Cc1cn2nc(NC3CCCCCCC3)sc2n1 | -5 | 0.45 |
| Clc1ccc(Nc2nc(Nc3ccc(Cl)cc3)nc(Oc3ccccc3)n2)cc1 | 7 | -1.16 |
| Cc1nc(CNc2nnc(C3CC3)o2)nc2c1CCCC2 | -5 | 0.46 |
| Cc1[nH]c(=O)[nH]c(=O)c1CC(=O)NCCN1CCc2ccccc21 | 2 | -0.4 |
| CC(C)N1C[C@@H](O)C[C@H]1c1nnc2n1CCN(Cc1ccc(C(F)(F)F)cc1)C2 | -2 | 0.35 |
| CC(C)n1nccc1NC(=O)Cn1cc(C(F)(F)F)ccc1=O | 2 | -0.24 |
| CN(C)[C@@H](CNC(=O)Nc1cccs1)c1csc2ccccc12 | -8 | 1.16 |
| O=C(NC[C@H]1OC[C@@H](NCc2ccncc2)[C@@H]1O)C1CCCC1 | 3 | -0.38 |
| CCN(C(=O)CN1CCCC[C@H]1C(=O)O)c1ccccc1 | -4 | 0.69 |
| CC(C)[C@H](Cn1ccnn1)NC(=O)Cc1ccccc1Cl | 14 | -1.81 |
| O=C(CC1CCC1)N[C@@]1(CO)CCOC1 | -11 | 1.88 |
| CN(Cc1cscn1)C(=O)c1nn(Cc2ccccc2)c2c1CN(C(=O)c1ccncc1)CC2 | -4 | 0.7 |
| Cc1cc(C)cc(NC(=O)c2ccc(Cn3ccn4nc5c(c4c3=O)CCCC5)cc2)c1 | -18 | 1.7 |
| CCCn1cnnc1CN(C)S(=O)(=O)CCC | -15 | 1.66 |
| CN(Cc1cc(-c2ccccc2)on1)C[C@@H]1CCCN2CCCC[C@H]12 | -2 | 0.34 |

| Structure (SMILES) | % Inhibition [%] | Z score |
| --- | --- | --- |
| Cc1cc2c(cc1C)N(CC(=O)Nc1ccc(F)cc1F)C(=O)CC(c1cccs1)=N2 | 2 | -0.2 |
| OCc1cc(C(F)(F)F)ccc1-c1cccc([C@@H]2COCCN2)c1 | -2 | 0.3 |
| O=C(NC1CCCC1)N1CCC[C@H]1c1cccs1 | 8 | -0.78 |
| CNC(=O)[C@H]1C[C@H](Oc2cccnc2)CN1S(=O)(=O)c1ccccc1C | -7 | 1.36 |
| Cc1cnc(CCNC(=O)Nc2ccc3ccc(=O)n(C)c3c2)c(C)c1 | -1 | 0.06 |
| CS(=O)(=O)N1CCC(n2cc(-c3ccsc3)nn2)CC1 | -12 | 1.5 |
| Cc1ccccc1-c1cc(NC(=O)C(=O)Nc2ccc(F)cc2OC(C)(C)C)n(C)n1 | 4 | -0.37 |
| O=C(c1ccc2nsnc2c1)N1CC(Nc2cccnn2)C1 | -10 | 1.53 |
| COc1cccc(-c2nnc(NC(=O)CCN(C(=O)C3CCCC3)[C@@H](C)c3ccccc3)s2)c1 | -7 | 0.71 |
| CC(C)c1nnc(-c2sccc2NC(=O)c2cc(F)ccc2Cl)o1 | -3 | 0.33 |
| C=CCNS(=O)(=O)c1cc(C)c(OCC)c(C)c1C | -28 | 3.3 |
| C[C@H](NC1CCC(=C2CCC2)CC1)c1ncn(C)n1 (stereo not given in full) | 2 | -0.2 |
| O=c1[nH]nc2c(N3CC[C@H](NCc4ccc(F)cc4)C3)nccn12 | 38 | -4.84 |
| CC(C)(C)c1cc2nc(C(=O)O)cc(C3CC3)n2n1 | -20 | 2.63 |
| CN(C)c1ccc(C(=O)N2CC[C@H](NC(=O)OC(C)(C)C)C2)cc1 | -10 | 2.04 |
| O[C@H]1CCc2cnn(Cc3ccccn3)c2C1 | -3 | 0.52 |
| N#Cc1ccsc1NC(=O)CCN1CCC(O)CC1 | -4 | 0.53 |
| CO[C@@H](C)C(=O)N(Cc1ccncc1)C1CC1 | -10 | 1.46 |
| CN(CC#CCNC(=O)c1ccc(=O)[nH]c1)Cc1ccccc1 | 0 | 0.04 |
